Results taken from PubChem BioAssay AID488969 (Vanderbilt High Throughput Screening Facility, 2010).
Over roughly 110,000 compounds, “z-score” has its median near -0.1; the highest 2% begin near 2. Some of the results follow. Active and inactive are the calls of the source.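 The calls were made as follows: active = z-score in the third read window above 3 or below -3; inactive = the rest.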

molecular target: Metabotropic glutamate receptor 8 (Rattus norvegicus) (UniProt P70579); assay: rat mGluR8 modulators via GIRK flux, primary screen, cell-based, thallium flux, HTS (AID 488969); conditions: HEK293 rat mGluR8, GIRK (G protein-gated inwardly rectifying potassium channel) thallium flux, FluoZin2; at 10 µM; stronger effect = higher value; submaximal glutamate (EC20) added with thallium
UniProt P70579, sequence (P70579 whole entry, looked up): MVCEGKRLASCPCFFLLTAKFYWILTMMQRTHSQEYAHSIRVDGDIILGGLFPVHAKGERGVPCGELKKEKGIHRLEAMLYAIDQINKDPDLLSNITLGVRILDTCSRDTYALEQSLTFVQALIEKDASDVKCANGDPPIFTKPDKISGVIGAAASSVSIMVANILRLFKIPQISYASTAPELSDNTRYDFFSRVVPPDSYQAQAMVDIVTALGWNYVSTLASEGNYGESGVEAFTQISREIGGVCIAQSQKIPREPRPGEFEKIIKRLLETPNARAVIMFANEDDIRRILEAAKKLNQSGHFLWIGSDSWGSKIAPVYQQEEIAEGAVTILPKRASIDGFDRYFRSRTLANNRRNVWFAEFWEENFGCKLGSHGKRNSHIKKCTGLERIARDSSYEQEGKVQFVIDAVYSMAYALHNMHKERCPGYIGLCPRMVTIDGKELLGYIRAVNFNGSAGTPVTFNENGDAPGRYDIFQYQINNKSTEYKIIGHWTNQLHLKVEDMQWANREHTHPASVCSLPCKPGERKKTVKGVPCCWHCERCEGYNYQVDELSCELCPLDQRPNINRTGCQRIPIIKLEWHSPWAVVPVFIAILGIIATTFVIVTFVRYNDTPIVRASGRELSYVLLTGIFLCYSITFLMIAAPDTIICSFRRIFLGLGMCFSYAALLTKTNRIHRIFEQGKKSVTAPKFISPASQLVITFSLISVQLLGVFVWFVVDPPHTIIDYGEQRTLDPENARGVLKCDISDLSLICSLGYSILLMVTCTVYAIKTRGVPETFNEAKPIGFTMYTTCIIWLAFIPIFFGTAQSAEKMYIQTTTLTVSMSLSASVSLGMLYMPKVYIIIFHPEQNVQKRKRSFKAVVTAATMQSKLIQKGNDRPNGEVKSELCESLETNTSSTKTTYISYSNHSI

SMILES	z-score
Cc1cccc(N=C2NC(=O)/C(=C/c3cn(C)c4ccccc34)S2)c1	-0.108
CC1CC(C)CN(CC(O)COc2ccc3c(c2)CCC3)C1 (stereo unspecified)	0.225
COc1ccc2oc(C(=O)OCC(=O)c3ccc4c(c3)OCCO4)c(C)c2c1	-0.327
O=C(Cn1c(C(F)(F)F)nc2ccccc21)c1ccc(Br)cc1	-0.0753
CN(Cc1ccccc1)C(=O)Cn1c(=O)oc2cc(S(=O)(=O)NCc3ccccc3)ccc21	-0.0728
CC1(C)N=C(c2cccs2)C(C)(C)N1O	-0.029
COc1cccc(C(c2c(C)[nH]n(-c3ccccc3)c2=O)c2c(C)[nH]n(-c3ccccc3)c2=O)c1OC	-0.0701
Cc1ccc(-c2nn(-c3ccccc3)cc2CO)o1	0.267
COc1ccc2nc(NC(=O)CSc3nc(C)cc(=O)[nH]3)sc2c1	0.103
CC(Oc1ccccc1)C(=O)Nc1ccc(S(=O)(=O)N2CCOCC2)cc1 (stereo unspecified)	0.987
O=C(O)/C(=C\c1ccco1)NC(=O)c1ccccc1	-0.269
CC1CCCN(CCCNC(=O)CCn2nc(-c3ccccc3)ccc2=O)C1 (stereo unspecified)	0.271
CCNC(=O)NC(=O)C(C)OC(=O)c1oc2ccccc2c1CSC1CCCCC1 (stereo unspecified)	-0.911
COc1ccc(N2C(=O)C3CCCN3C2c2ccccc2)cc1Cl (stereo unspecified)	-0.314
CCN(CC)C(=O)Cn1ncc2c1-c1ccccc1OC2	0.919
CCOCCc1nnc(NC(=O)COC)s1	-0.0897
COc1ccccc1NC(=O)N1CCN(c2ccccn2)CC1	0.411
O=C(CSc1ncnc2nc[nH]c12)N1CCOCC1	-0.527
CCn1cnc2cc(NCc3ccc(OC)cc3)ccc21	-0.159
CCN1CCN(CC(=O)NC2CCCCC2)C(=O)C1=O	-0.0589
O=C(c1ccc(N2CCCC2=O)cc1)N1CCOCC1	0.832
Cc1cccc(NC(=O)CCCN2C(=O)c3cccc4cccc(c34)C2=O)c1	0.0083
N#Cc1c(NC(=O)COC(=O)c2ccc(S(=O)(=O)N3CCCC3)cc2)sc2c1CCCCC2	-0.303

SMILES	z-score
C(=C\c1ccccc1)/CSc1nnc(-c2ccccc2)n1Cc1ccco1	-0.701
CSc1ccccc1NC(=O)c1c(Br)cnn1C	0.0242
NC(=O)c1cc(-c2ccccc2)sc1NC(=O)Cc1ccc(S(=O)(=O)N2CCOCC2)s1	-0.0282
CNC(=O)Nc1ccc(Cl)cc1	0.332
CC(=O)N1SC(N)=NC1c1ccccc1 (stereo unspecified)	-0.413
CCOc1cc(C)c(S(=O)(=O)Nc2ccc3cn[nH]c3c2)cc1C	0.367
CCOC(=O)Cc1nnc(NC(=O)CSc2ccc(Cl)cc2)s1	-0.259
CC1CCC(C(C)C)C(OCC[N+](C)(C)C)C1 (stereo unspecified)	-0.0727
COC(=O)c1ccc(COc2ccccc2/C=C(\C#N)C(=O)Nc2ccccc2C)cc1	-0.436
COc1ccc(/C=C(/C#N)C(=O)NC2CCCCC2)cc1Br	0.0154
O=C1c2ccccc2C(=O)N1Cc1nc2ccccc2c(=O)n1CCN1CCOCC1	-0.0784
COC(=O)C1CCN(C(=O)NC(C)(C)C)CC1	0.135
CC(C)C(=O)N1CCN(c2ccc(NC(=O)c3ccc4c(c3)OCCO4)cc2Cl)CC1	-0.0285
COC(=O)NC1CCC(CC2CCC(NC(=O)OC)CC2)CC1 (stereo unspecified)	0.0332
Oc1c(N=Nc2ccccn2)ccc2ccccc12	active: 13.6
COc1ccc(OC)c2c(C)cc(N3CCN(C(=O)c4ccc(Cl)cc4)CC3)nc12	-0.0445
Cc1ccc(NC(=O)CSC2=Nc3ccccc3C3CC=NN23)c(C)c1 (stereo unspecified)	0.371
O=C(NC(NC(=S)Nc1ccc(Cl)cc1Cl)C(Cl)(Cl)Cl)c1cccc([N+](=O)[O-])c1 (stereo unspecified)	1.67
O=C(Nc1nc(=S)ss1)c1ccc(Cl)cc1Cl	active: 4.46
Cc1nc2ccccc2nc1OCC(=O)Nc1cc(C(F)(F)F)ccc1N1CCOCC1	-1.17
Oc1ccc(Nc2nc3ccccc3nc2Nc2ccc(O)cc2)cc1	-0.339
CC(C)=C1C(=O)NN(c2cccc(Cl)c2)C1=O	-0.095
Cc1cc(=O)oc2cc(OC(C)C(=O)N3CCCc4ccccc43)ccc12 (stereo unspecified)	-0.309

SMILES	z-score
CSc1ccc(CCNC(=O)CSc2ccsc2[N+](=O)[O-])cc1	-0.173
CCc1c(C(=O)NCc2ccc3c(c2)OCO3)[nH]c(C)c1C(C)=O	-0.4
O=C(/C=C/c1ccco1)c1ccc(NC(=O)C23CC4CC(CC(C4)C2)C3)cc1	-2.44
CCOC(=O)c1[nH]c(C)c(CN(CCc2ccccc2)S(C)(=O)=O)c1C	-0.0466
Cc1cccc2c1N(CCOc1ccccc1Cl)C(=O)C2=O	-0.337
CCCCOC(=O)Nc1nccs1	-0.0444
Cc1ccc2c(c1)nnn2C1CCN(S(=O)(=O)c2cccc(S(=O)(=O)N(C)C)c2)CC1	0.118
O=C(NCCc1cn2ccsc2n1)c1cccs1	0.237
Cc1ccc(C(C)NC(=O)c2cc(C)oc2C)cc1 (stereo unspecified)	1.04
COc1ccc(S(=O)(=O)N2CCOCC2)c(Cl)c1Cl	-0.116
O=C(Nc1ccccc1)Nc1cc(Cl)cc(Cl)c1	0.125
CCOC(=O)C1CCCN(c2c(NCCN(C)Cc3ccccc3)c(=O)c2=O)C1 (stereo unspecified)	-0.33
Cc1cc(=O)oc2c(CN3CCC(C)CC3)c(O)c(Cl)cc12	0.38
O=C(c1ccco1)N(CCC(c1ccccc1)c1ccco1)Cc1ccc(F)cc1 (stereo unspecified)	-0.207
O=C(CN1CCC(c2nc3ccccc3s2)CC1)NCc1ccccc1	-0.322
O=C(NCc1ccccc1)c1cccc(NS(=O)(=O)c2cccc3cccnc23)c1	-0.228
COc1ccc(-c2csc(/C(C#N)=C\c3cccc([N+](=O)[O-])c3)n2)cc1	-0.607
CCOC(=O)c1nc(C)n(-c2ccc(Cl)cc2)n1	0.115
COc1ccc(Cl)cc1Nc1nc(C)cc(C)c1C(N)=O	0.336
COc1ccc(C2=NOC(C(=O)Nc3cccnc3)C2)cc1 (stereo unspecified)	-0.0465
CN1c2ccccc2C(C)(C)C12CC(c1ccc(S(=O)(=O)N3CCCCC3)cc1)=NO2 (stereo unspecified)	-0.0605
COC(=O)C1C2C=CC3(CN(c4cccc(Cl)c4)C(=O)C13)O2 (stereo unspecified)	-0.0902
COC(=O)CSc1nc2cc3c(cc2cc1C#N)OCO3	-0.566

SMILES	z-score
O=C(NC1CCCCC1)C1CC(O)CN1C(=O)OCc1ccccc1 (stereo unspecified)	-0.0816
CCOc1ccc(-n2c(N)c(-c3nc4ccccc4n3C)c3nc4ccccc4nc32)cc1	-0.274
O=C(Nc1ccc(N2CCOCC2)cc1)c1cccc(S(=O)(=O)N2CCCC2)c1	-0.279
CC(NC(=O)Nc1ccc(Cl)c(Cl)c1)C(c1ccccc1)N1CCOCC1 (stereo unspecified)	-0.159
CCCn1cc(SCC(=O)NCc2ccc3c(c2)OCO3)c2ccccc21	-0.245
Cc1sc(NC(=O)Cn2[nH]c(=O)c3ccccc3c2=O)nc1-c1ccccc1	-0.0349
CN(Cc1ccccc1)Cc1nc2c(c(=O)n(C)c(=O)n2C)n1CCCc1ccccc1	-0.243
COc1ccc(CCNC(=O)CSc2nnc(Cc3csc(N)n3)n2C)cc1OC	0.544
Cc1ccccc1NC(=O)Cc1nnc(SCC(=O)c2ccc(Br)cc2)n1C	-0.0568
CSc1nnc(-c2ccco2)n1-c1ccccc1	-0.201
O=C(C1CCCN(S(=O)(=O)c2cccc3cccnc23)C1)N1CCN(c2ccccc2F)CC1 (stereo unspecified)	-0.422
Cc1cc(C(=O)NCc2cccs2)ccc1[N+](=O)[O-]	-0.105
CCOC(=O)C1CCN(c2cc(C)nc3cc(-c4cccc(F)c4)nn23)CC1	0.0509
O=C(NS(=O)(=O)c1ccccc1)c1ccccc1O	0.0922
Nc1ccccc1Nc1ccncc1[N+](=O)[O-]	0.252
CCS(=O)(=O)n1nc(-c2ccc(Cl)cc2)nc1SC	-0.344
CCN(CC)S(=O)(=O)c1ccc(C)c(NC(=O)CSc2nc3ccccc3[nH]2)c1	-0.271
COc1ccc(OC)c(N(CC(=O)Nc2ccccc2)S(C)(=O)=O)c1	0.193
CCOC(=O)c1ccccc1NC1CC(=O)N(c2ccccc2C)C1=O (stereo unspecified)	-0.0673
CCC(C)(C)NC(=O)C(c1cccn1C)N(Cc1ccc(C)cc1)C(=O)Cn1nnc2ccccc21 (stereo unspecified)	-1.17
CN(C)C(=O)Nc1ccc(F)cc1F	0.148
Cc1ccc(CN2CCN(CC(=O)NCc3ccc(Cl)cc3)C2=O)cc1	-0.228
CCS(=O)(=O)N1CCC(C(=O)OCC(=O)c2ccc(Br)cc2)CC1	-0.0779

SMILES	z-score
NNC(=O)Cn1c(SCc2ccccc2)nc2ccccc21	-0.178
Cc1ccc(S(=O)(=O)N2CC3(C)CN(S(=O)(=O)c4ccc(C)cc4)CC(C)(C2)C3)cc1	-0.039
CCN(CCNC(=O)Nc1ccc(Cl)cc1)c1ccccc1	-2.19
COc1ccc(CNC(=O)/C=C/c2ccc(S(=O)(=O)NCc3ccco3)cc2)cc1OC	-0.153
COc1ccc(N=C2NN=C(c3c(C)[nH]c4ccccc34)CS2)cc1	-0.004
Cc1nc(NC(=O)c2ccccc2)sc1-c1csc(Nc2cccc(Cl)c2)n1	-0.0316
CCOC(=O)c1c(N)sc(C(C)=O)c1C	0.968
S=C(Nc1ccc(Cl)cc1)c1sc(N2CCCCC2)nc1N1CCOCC1	-0.435
FC(F)(F)C12CC(c3ccccc3)=NCCN1CCN2 (stereo unspecified)	0.77
CCN1CCN(S(=O)(=O)c2ccc(Cl)c(C(=O)Nc3nnc(CC(C)C)s3)c2)CC1	0.16
CCN1C(=O)C2C(C1=O)N1C(c3ccccc3)C3C(=O)N(CC)C(=O)C3N1C2c1ccccc1 (stereo unspecified)	0.0538
CCOc1ccccc1C(=O)N(CCC(=O)OC)c1ccccn1	-0.297
COc1ccc2c(c1OC)C(=O)N(c1cccc(C(F)(F)F)c1)C2	0.193
CCOc1cc(/C=C2/C(=N)N3C=CSC3=NC2=O)ccc1OCCCOc1ccccc1C	-0.338
CCOc1cc(C(c2c(C)[nH][nH]c2=O)c2c(C)[nH][nH]c2=O)ccc1OCc1ccc([N+](=O)[O-])cc1	-0.27
CC1CC(C)(C)NC(=S)S1 (stereo unspecified)	-0.145
COC(=O)c1cc2oc(C)cc2n1CC(=O)Nc1ccc(OC)c(OC)c1OC	-0.587
Cc1cc(Cl)ccc1N1C(=O)CC(SCCC(=O)O)C1=O (stereo unspecified)	0.0171
N#C/C(=C(/O)COc1cccc2ccccc12)c1nc2ccccc2[nH]1	-0.201
